# Test results: the supplement of paper PMC11417369
# ± gives the standard deviation of the averaged measurements. The list shows a part of the results.
# Tested on: PfAP2-I AP2 domain 3 (GST-tagged)
# Test: gcPBM binding intensity (ln(normalized median fluorescence intensity)); higher = stronger DNA binding
# Summary of the method: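 Probes on an Agilent 4 × 180k array were primer-extended, double-stranded and 36 bp long, taken from intergenic genomic regions, with negative controls added. GST-tagged P. falciparum DNA-binding domains from E. coli, about 25 μg on average, were applied to the array for 1 h in 1× PBS containing 1% milk, 0.2 mg/ml BSA, 0.5% salmon testes DNA and 0.03% Triton X-100. Binding intensity, obtained after Alexa488 anti-GST antibody detection and a 488 nm scan, is the highest Masliner-normalised natural-log median intensity across replicate spots of either probe orientation.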
row,Sequence,gcPBM binding intensity (ln)
1,TTAATTCGTACATACACACGCACATATATATATATA [CACACA_site1469],9.39 ± 0.21
2,AATAATAATAGAAACACACACACATCTTTAATAATA [CACACA_site4805],7.73 ± 0.57
3,ATATTTTTTTTCTACACACATACAAATATATATTAT [CACACA_site2359],8.33 ± 0.51
4,AGGAATATCGAAAACTGTACTTGTATGTTTCATAAA [XGTACX_site6143],7.6 ± 0.51
5,TATAAAAATAATATTACACACATGTAAAATGGGGGT [CACACA_site9071],8.57 ± 0.11
6,AATTGTATGTATGCCTGTACATATGTCTATCTTAAG [XGTACX_site1927],7.65 ± 0.41
7,TATTTTATATGAGGCACACAAATTTTAATTGTTATT [CACACA_site725],7.67 ± 0.55
8,ATTTATTTATTTTTTTGTACTTATAATTTTTATTAT [XGTACX_site2656],7.79 ± 0.35
9,TATATTTAAATTCTTTCAAATCATGTTGTAATTTTT [CACACA_negctrl_site1349],7.42 ± 0.61
10,ATACACTTAATATTATGTACATATATAAAAAAAATA [XGTACX_site1500],7.99 ± 0.13
11,TTTTCAGAAAAGAGAAACTTTATTTTTCACAACCGA [TGCATGCA_negctrl_site389],7.47 ± 0.67
12,ATTTTTTATGAAAATAAACACACGATTTATTATATA [CACACA_site1312],7.47 ± 0.49
13,TAAAAAATTATTAAACGTACGAGACTTTTTATCAGT [XGTACX_site2219],7.62 ± 0.6
14,CATAAAAATGGATACACACACATAATATATTTATAT [CACACA_site7669],7.74 ± 0.58
15,ACAATATATTCATATTGTACATAAAATAAGGCTAAC [XGTACX_site6728],7.96 ± 0.63
16,AAATTTTAATTAGGAACACACATATATATATATATA [CACACA_site5673],9.52 ± 0.54
17,TTATATATAGATCACACACACACACCGGTTTTAAAA [CACACA_site4220],7.99 ± 0.6
18,TCTTTTTTAATATAATATATTTTTATTAAGTAAATC [TGCATGCA_negctrl_site408],7.54 ± 0.39
19,TAAATTTATGGACACACACACATATATATATATATA [CACACA_site4620],9.45 ± 0.35

row,Sequence,gcPBM binding intensity (ln)
1,TATTTATCTATATATTGTACTTATTAGTCTTAATGT [XGTACX_site4242],7.74 ± 0.15
2,GGTTCTAAAAAGGGAAGTACATGGAAAAATATAAAT [XGTACX_site4639],8 ± 0.68
3,ATCGTTATATAATGTTGTACTTGTTATATATATATA [XGTACX_site7582],9.095 ± 0.049
4,GCATGCACGGAAAAAAGTACATATATAAATTTGGTT [XGTACX_site3393],8.2 ± 0.52
5,AAAATTTAGCAAAGGTGTACAAAAGATAATTAGAGT [XGTACX_site3467],8.56 ± 0.5
6,TTTTTTAAATATATTTGTACATATGAAATAAAGATA [XGTACX_site3841],8.05 ± 0.085
7,AAAATTATTATGAAAAGTACAAATATGTAAACATAC [XGTACX_site5517],7.67 ± 0.53
8,TTTTTCACATCTATAAATCATCTAATCAATATTTTT [GTGCAC_negctrl_site444],7.78 ± 0.38
9,ATTCTAATTAGTAAAGTGCAGATAAAATGATGCCCT [GTGCAC_site9578],9.3 ± 0.014
10,ATATGTTTATTTATTTGTACTTATCATATAATAACA [XGTACX_site5486],7.92 ± 0.5
11,TGTATATTTTAGTGATGTACTAATATTATTACTAAT [XGTACX_site3952],7.72 ± 0.32
12,TTAGAAAGAATGTATTGTACATATATATTATATATA [XGTACX_site7045],7.66 ± 0.36
13,TGCTTAGCACACTATCTACTTCCTTTGTTTCATAAA [GTGCAC_negctrl_site495],8.55 ± 0.26
14,TTCATTTATATAATCACACATTTTATCATCTATGTT [CACACA_site4327],7.74 ± 0.74
15,TGAGTATATAAATACACACACATATATATATTTTAA [CACACA_site5130],7.63 ± 0.32
16,TTTTATTTTTAAGGATGTACTCAATTGTTTATATAC [XGTACX_site3965],7.79 ± 0.4
17,TTTTTTTTTAATAAAATTATAATAAATATGAAATTA [XGTACX_negctrl_site369],7.5 ± 0.15
18,ATATATATATATATATGTACACATATATATACTCAC [XGTACX_site8043],9.19 ± 0.37
19,GCACATATGAATATAATACACACTTGTATTATTAAT [CACACA_site1841],8.1 ± 0.52

row,Sequence,gcPBM binding intensity (ln)
1,ATTTTATATACAAAATGTACATATTTATTATATATG [XGTACX_site6732],7.74 ± 0.5
2,AAGGATACGCAAAAATGTACAAAATGCTTATAAATA [XGTACX_site984],7.75 ± 0.54
3,GGAGCTATCTCCTGCACACACAATTTTTTTTTTTTT [CACACA_site2240],8.23 ± 0.78
4,ATTAAAATCATATACACACCCATATATATATATATA [CACACA_site5050],9.36 ± 0.37
5,ATACATATCTACCTATGTACATAATACAACAAAGAT [XGTACX_site323],7.95 ± 0.57
6,GAATAAATACCGGTGTGTACTTAAATCATTCACGAA [XGTACX_site3174],7.92 ± 0.3
7,CTTATATTAAGTATTACACACATATATATAAATGCA [CACACA_site4581],7.79 ± 0.33
8,CCTAAATAAATGGACACACACATATATATATATATA [CACACA_site1439],9.47 ± 0.54
9,TAGAAATAAGAAAAATGTACATATAATATTGAAAGT [XGTACX_site3043],8.29 ± 0.67
10,TATATATATATAAGAAGTACAGAAAATTAGAAAAAA [XGTACX_site8773],9.27 ± 0.15
11,TTTTACGTAATATTTATACACACGAACCTTATTAAT [CACACA_site2300],7.79 ± 0.59
12,AGTCTATAGTAATTTACACACAAAAAAATATCAGGA [CACACA_site7620],7.95 ± 0.7
13,AGTAGTCTGGAGAAAAGTACATAGTATCTGGTAGCT [XGTACX_site2027],7.98 ± 0.52
14,TTTATTGATAATATATATATATATATATATATATAT [GTGCAC_negctrl_site552],9.27 ± 0.6
15,AATATCTTAGTGGATACACACATATAAATGGGTATT [CACACA_site4426],7.58 ± 0.53
16,TCATATGTTAAACACACACACACACCGAAAAAAACA [CACACA_site9067],8.05 ± 0.39
17,AAAAAATTAAAAAAAAAAAAATCATGAAAAAAACAA [CACACA_negctrl_site1673],7.63 ± 0.47
18,GTTTTATTCCATTATTGTACTTAATATAAAGAAACT [XGTACX_site3054],8.18 ± 0.38
